Common to all, as to conditions: 50 µM; 24 h
Experiment [1] has as its system HeLa VPS33A reporter cells. As to the kind of experiment: relative cell viability (CellMask signal) vs DMSO (fraction of DMSO); higher = less cytotoxic.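 Also: primary screen of an FDA-approved drug library in HeLa reporter cells in 96-well format, CellMask signal normalized to DMSO-treated wells set as 1, under 0.5 deemed highly cytotoxic.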
For experiment [2], the system named is HeLa VPS33A R498W KI + HA-SDC1-FLAG. As to the kind of experiment: relative GAG core protein HA-SDC1 amount per cell number vs DMSO (fraction of DMSO); higher = more SDC1 (GAG core protein).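 Also: HA-SDC1 level read out by In-Cell Western staining with an anti-HA antibody against the N-terminal tag, screening FDA-approved library drugs.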
The subject of experiment [3] is HeLa VPS33A KO + NLuc-VPS33A R498W. As to the kind of experiment: relative mutant VPS33A R498W amount (NanoLuc luminescence) vs DMSO (fraction of DMSO); HeLa model of a glycosaminoglycan (GAG) storage disease; KI is knock-in and KO knock-out; SDC1 is syndecan 1; higher = higher mutant VPS33A level.

Counter-ions that a name gives are not always drawn. The list shows a part of the results. Rule as the data show it: active = 0.5 or less and inactive = the rest. Single values are uncertain, as repeats are few or missing.

The results in this text go back to the supplement of paper PMC12355420.
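For relative mutant VPS33A R498W amount (NanoLuc luminescence) vs DMSO in this document: screen of an FDA-approved drug library, NanoLuc luminescence read after lysing the treated cells, taken as a measure of mutant VPS33A protein stability.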

The compound `CCN(CCO)CCCC(C)Nc1ccnc2cc(Cl)ccc12` (stereo not drawn) [Hydroxychloroquine Sulfate] showed a relative cell viability in experiment [1] of 1.08. Moreover, the “relative GAG core protein HA-SDC1 amount per cell number” value in experiment [2] is inactive: 0.875. Further, the “relative mutant VPS33A R498W amount” value in experiment [3] is 1.15.

Regarding `C[n+]1cccc(C(=O)[O-])c1` [Trigonelline Hydrochloride], the relative cell viability in experiment [1] was found to be 0.998. Further, in experiment [2], the “relative GAG core protein HA-SDC1 amount per cell number” value is inactive: 0.885. Moreover, the “relative mutant VPS33A R498W amount” value in experiment [3] stood at 1.39.

In experiment [1], `Oc1cc(O)c(Cl)cn1` [Gimeracil] had a relative cell viability of 1.26. Moreover, in experiment [2], the “relative GAG core protein HA-SDC1 amount per cell number” value is inactive: 0.93. In addition, the “relative mutant VPS33A R498W amount” value in experiment [3] stood at 1.05.

In experiment [1], `CC1(C)O[C@@H]2C[C@H]3[C@@H]4C[C@H](F)C5=CC(=O)C=C[C@]5(C)[C@H]4[C@@H](O)C[C@]3(C)[C@]2(C(=O)CO)O1` [Flunisolide] showed a relative cell viability of 1.2. Further, the “relative GAG core protein HA-SDC1 amount per cell number” value in experiment [2] is inactive: 0.875. Also, in experiment [3], the “relative mutant VPS33A R498W amount” value worked out at 1.01.

Consider `O=C1CN(/N=C/c2ccc([N+](=O)[O-])o2)C(=O)N1` [Nitrofurantoin], for which the relative cell viability in experiment [1] was found to be 1.09. Besides, the “relative GAG core protein HA-SDC1 amount per cell number” value in experiment [2] is inactive: 0.681. In experiment [3], the “relative mutant VPS33A R498W amount” value is 0.866.

For the compound `Cc1cc(=O)n(-c2ccccc2)n1C` [Antipyrine], the relative cell viability in experiment [1] came to 1.11. Also, the “relative GAG core protein HA-SDC1 amount per cell number” value in experiment [2] was inactive: 0.794. In addition, the “relative mutant VPS33A R498W amount” value in experiment [3] was 1.17.

Consider `Cc1ccc(C(=O)c2cc(O)c(O)c([N+](=O)[O-])c2)cc1` [Tolcapone], for which the relative cell viability in experiment [1] was found to be 0.731. In addition, the “relative GAG core protein HA-SDC1 amount per cell number” value in experiment [2] was active: 0.467. For the same compound, the “relative mutant VPS33A R498W amount” value in experiment [3] is 1.39.

In the case of `C1CNCCN1` [Piperazine], in experiment [1], the relative cell viability was found to be 1.01. For the same compound, the “relative GAG core protein HA-SDC1 amount per cell number” value in experiment [2] was inactive: 1.05. For the same compound, the “relative mutant VPS33A R498W amount” value in experiment [3] was 1.13.

Consider `O=C(O)CCCc1ccccc1` [Sodium Phenylbutyrate], for which, in experiment [1], the relative cell viability is 1.04. Moreover, the “relative GAG core protein HA-SDC1 amount per cell number” value in experiment [2] is inactive: 1.29. In addition, the “relative mutant VPS33A R498W amount” value in experiment [3] was 1.23.

In turn, `O=C1C(=O)c2ccccc2C(O)=C1C1CCC(c2ccc(Cl)cc2)CC1` (stereo not drawn) [Atovaquone] gave a relative cell viability in experiment [1] of 1.01. Further, the “relative GAG core protein HA-SDC1 amount per cell number” value in experiment [2] was active: 0.468. In addition, the “relative mutant VPS33A R498W amount” value in experiment [3] was determined as 0.506.

As for `COc1c(N2CCNC(C)C2)c(F)cc2c(=O)c(C(=O)O)cn(C3CC3)c12` (stereo not drawn) [Gatifloxacin], the relative cell viability in experiment [1] is 1.43. In experiment [2], the “relative GAG core protein HA-SDC1 amount per cell number” value is inactive: 0.904. Besides, the “relative mutant VPS33A R498W amount” value in experiment [3] was 1.19.

Compound `CN/C(=N\CCSCc1nc[nH]c1C)NC#N` [Cimetidine] yielded a relative cell viability in experiment [1] of 1.18. Further, in experiment [2], the “relative GAG core protein HA-SDC1 amount per cell number” value was inactive: 1.3. The “relative mutant VPS33A R498W amount” value in experiment [3] was 1.52.

In turn, `N=C(N)NCCN1CCCCCCC1` [Guanethidine Sulfate] came in with a relative cell viability in experiment [1] of 1.1. Moreover, the “relative GAG core protein HA-SDC1 amount per cell number” value in experiment [2] was inactive: 1.44. In addition, the “relative mutant VPS33A R498W amount” value in experiment [3] came to 0.605.

In turn, `C[S+](CC[C@H](N)C(=O)[O-])C[C@H]1O[C@@H](n2cnc3c(N)ncnc32)[C@H](O)[C@@H]1O` (stereo partly drawn) [Ademetionine] registered a relative cell viability in experiment [1] of 0.992. Further, the “relative GAG core protein HA-SDC1 amount per cell number” value in experiment [2] was inactive: 0.881. In experiment [3], the “relative mutant VPS33A R498W amount” value came out at 1.39.

Compound `N#C[C@@H]1CCCN1C(=O)CNC12CC3CC(CC(O)(C3)C1)C2` [Vildagliptin (LAF-237)] displayed a relative cell viability in experiment [1] of 1.45. In experiment [2], the “relative GAG core protein HA-SDC1 amount per cell number” value is inactive: 0.847. Besides, the “relative mutant VPS33A R498W amount” value in experiment [3] turned out to be 0.854.

Consider `O=C(NCCO[N+](=O)[O-])c1cccnc1` [Nicorandil], for which the relative cell viability in experiment [1] was 0.959. For the same compound, the “relative GAG core protein HA-SDC1 amount per cell number” value in experiment [2] was inactive: 0.751. Besides, the “relative mutant VPS33A R498W amount” value in experiment [3] was 1.13.

The compound `C#C[C@]1(O)CC[C@H]2[C@@H]3CCC4=CC(=O)CC[C@@H]4[C@H]3CC[C@@]21C` [Norethindrone] displayed a relative cell viability in experiment [1] of 0.93. The “relative GAG core protein HA-SDC1 amount per cell number” value in experiment [2] was inactive: 0.887. The “relative mutant VPS33A R498W amount” value in experiment [3] was 1.16.

In turn, `CC[C@H]1OC(=O)C[C@@H](O)[C@H](C)[C@@H](O[C@@H]2O[C@H](C)[C@@H](O[C@H]3C[C@@](C)(O)[C@@H](O)[C@H](C)O3)[C@H](N(C)C)[C@H]2O)[C@@H](CC=O)C[C@@H](C)C(=O)/C=C/C(C)=C/[C@@H]1CO[C@@H]1O[C@H](C)[C@@H](O)[C@@H](OC)[C@H]1OC` [Tylosin tartrate] registered a relative cell viability in experiment [1] of 0.943. In experiment [2], the “relative GAG core protein HA-SDC1 amount per cell number” value is inactive: 0.856. For the same compound, in experiment [3], the “relative mutant VPS33A R498W amount” value stood at 1.2.

In experiment [1], `C=CC1=C(C(=O)O)N2C(=O)[C@@H](NC(=O)/C(=N\O)c3csc(N)n3)[C@H]2SC1` [Cefdinir] registered a relative cell viability of 1.41. In addition, the “relative GAG core protein HA-SDC1 amount per cell number” value in experiment [2] was inactive: 1.31. In addition, in experiment [3], the “relative mutant VPS33A R498W amount” value is 1.03.

In turn, `CCOC(=O)[C@H](CCc1ccccc1)N[C@@H](C)C(=O)N1CCC[C@H]1C(=O)O` [Enalapril Maleate] gave a relative cell viability in experiment [1] of 1.01. In experiment [2], the “relative GAG core protein HA-SDC1 amount per cell number” value was inactive: 0.913. Besides, the “relative mutant VPS33A R498W amount” value in experiment [3] stood at 1.38.

With `O=C(O)CCCC[C@@H]1SC[C@@H]2NC(=O)N[C@@H]21` [Biotin], the relative cell viability in experiment [1] is 1.54. Also, the “relative GAG core protein HA-SDC1 amount per cell number” value in experiment [2] is inactive: 0.93. For the same compound, the “relative mutant VPS33A R498W amount” value in experiment [3] came to 0.676.

Compound `CN1CCC[C@@H]1Cc1c[nH]c2ccc(CCS(=O)(=O)c3ccccc3)cc12` [Eletriptan HBr] yielded a relative cell viability in experiment [1] of 1.03. Besides, the “relative GAG core protein HA-SDC1 amount per cell number” value in experiment [2] is inactive: 0.918. Besides, the “relative mutant VPS33A R498W amount” value in experiment [3] is 0.972.

Regarding `C/C(O)=C(\C#N)C(=O)Nc1ccc(C(F)(F)F)cc1` [Teriflunomide], the relative cell viability in experiment [1] was 1.16. For the same compound, in experiment [2], the “relative GAG core protein HA-SDC1 amount per cell number” value was inactive: 0.62. Moreover, the “relative mutant VPS33A R498W amount” value in experiment [3] is 1.24.

For the compound `c1ccc2[nH]c(-c3cscn3)nc2c1` [Thiabendazole], the relative cell viability in experiment [1] worked out at 1.52. For the same compound, the “relative GAG core protein HA-SDC1 amount per cell number” value in experiment [2] was inactive: 0.685. The “relative mutant VPS33A R498W amount” value in experiment [3] turned out to be 0.817.

Take `CC1COc2c(N3CCN(C)CC3)c(F)cc3c(=O)c(C(=O)O)cn1c23` (stereo not drawn) [Ofloxacin]: the relative cell viability in experiment [1] was determined as 0.977. The “relative GAG core protein HA-SDC1 amount per cell number” value in experiment [2] was inactive: 1.28. In addition, in experiment [3], the “relative mutant VPS33A R498W amount” value was found to be 1.26.

`NC[C@H]1O[C@H](O[C@H]2[C@H](O)[C@@H](O[C@H]3O[C@H](CO)[C@@H](O)[C@H](N)[C@H]3O)[C@H](N)C[C@@H]2N)[C@H](O)[C@@H](O)[C@@H]1O` [Kanamycin Sulfate] registered a relative cell viability in experiment [1] of 1.36. For the same compound, in experiment [2], the “relative GAG core protein HA-SDC1 amount per cell number” value is inactive: 1.17. Further, the “relative mutant VPS33A R498W amount” value in experiment [3] turned out to be 0.95.
